Data on 54 molecules can be found in publication PMC4336329 (PLoS ONE, 2015).

The campaign covered roughly 310,000 compounds. About 14,000 (4.5%) showed an effect of 50% or more. Effects have a minus sign here. The list shows a part of the results.
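Further: peak tail current of the secondary pulse compared with the same well before compound.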

Chain of human ether-à-go-go-related gene (hERG) potassium channel (Q12809 whole entry, looked up): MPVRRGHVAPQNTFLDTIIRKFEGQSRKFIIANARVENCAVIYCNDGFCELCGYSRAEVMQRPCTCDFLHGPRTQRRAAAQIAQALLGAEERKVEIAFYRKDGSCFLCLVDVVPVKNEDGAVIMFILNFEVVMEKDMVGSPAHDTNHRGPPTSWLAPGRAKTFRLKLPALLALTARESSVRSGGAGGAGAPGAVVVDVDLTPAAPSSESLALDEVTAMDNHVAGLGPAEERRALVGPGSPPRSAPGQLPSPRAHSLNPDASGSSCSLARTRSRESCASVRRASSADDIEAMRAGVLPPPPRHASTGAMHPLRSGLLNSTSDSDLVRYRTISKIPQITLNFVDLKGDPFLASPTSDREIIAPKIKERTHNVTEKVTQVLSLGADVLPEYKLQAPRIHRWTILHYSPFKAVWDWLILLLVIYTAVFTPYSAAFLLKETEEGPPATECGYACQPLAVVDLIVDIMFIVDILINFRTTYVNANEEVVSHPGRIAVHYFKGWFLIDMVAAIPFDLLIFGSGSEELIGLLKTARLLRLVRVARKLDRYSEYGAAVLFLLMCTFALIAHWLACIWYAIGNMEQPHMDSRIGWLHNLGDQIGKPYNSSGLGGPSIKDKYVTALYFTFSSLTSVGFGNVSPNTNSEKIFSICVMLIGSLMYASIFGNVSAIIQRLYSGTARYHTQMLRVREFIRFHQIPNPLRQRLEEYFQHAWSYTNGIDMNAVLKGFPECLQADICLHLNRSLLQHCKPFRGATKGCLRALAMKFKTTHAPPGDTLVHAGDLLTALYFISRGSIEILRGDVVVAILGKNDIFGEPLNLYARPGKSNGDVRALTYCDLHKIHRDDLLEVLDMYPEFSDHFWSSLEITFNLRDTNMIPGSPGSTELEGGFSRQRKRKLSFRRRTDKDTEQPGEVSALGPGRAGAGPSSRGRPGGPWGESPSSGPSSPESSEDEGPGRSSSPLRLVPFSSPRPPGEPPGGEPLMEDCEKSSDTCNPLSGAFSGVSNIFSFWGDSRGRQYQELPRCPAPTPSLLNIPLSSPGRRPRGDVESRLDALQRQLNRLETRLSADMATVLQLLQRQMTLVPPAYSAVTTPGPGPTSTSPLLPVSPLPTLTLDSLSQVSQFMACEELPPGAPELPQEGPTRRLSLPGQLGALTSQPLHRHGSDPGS

The assay addresses human ether-à-go-go-related gene (hERG) potassium channel (human, UniProt Q12809). In words: primary screen, population patch clamp on CHO cells stably expressing hERG.
As for `CCS(=O)(=O)Nc1cccc(-c2nc3cccnc3s2)c1`, the “hERG current change (%, negative = inhibition) at 10uM” value is -29.7%.
In the case of `COc1ccc(NC(=O)Nc2cc(C(C)(C)C)on2)cc1OC` it was -1.9%; in that of `CC1CCCCC1NS(=O)(=O)c1ccc2c(c1)CC(=O)N2C` (stereo not drawn), 3.42%.
In the case of `COCCOC(=O)c1[nH]c2c(c1C)C(=O)CC(c1ccc(OC)c(OC)c1)C2` (stereo not drawn) it was 9.54%; in that of `C/C(=N\NC(=O)CN1CCN(Cc2ccc(C)cc2)CC1)c1ccncc1`, -74.8%.
For the molecule `O=C(c1ccc(=O)[nH]c1)N1CCN(S(=O)(=O)c2cc(C(F)(F)F)ccc2Cl)CC1`, the “hERG current change (%, negative = inhibition) at 10uM” value is -13.4%.
In the case of `COc1cc(-c2nnc(SCC(=O)N3c4ccccc4Sc4ccccc43)o2)cc(OC)c1OC` it was 0.943%; in that of `CN(C(=O)CSc1nnc(-c2ccco2)n1N)C1CCCCC1`, 1.61%.
In the case of `Cc1cc(NC(=O)CSc2nc3c(c(=O)n2-c2ccc(Br)cc2)SCC3)no1`, the “hERG current change (%, negative = inhibition) at 10uM” value is given as -0.564%.
On to `O=C(O)c1cc(S(=O)(=O)Nc2ccc3oc(=O)sc3c2)ccc1O`, for which the “hERG current change (%, negative = inhibition) at 10uM” value came out at 9.71%.
In the case of `CNC(=O)NC(=S)NC(=O)c1ccccc1Cl` it was 9.27%; in that of `COc1ccc(OCc2cc(C(=O)N3CCOCC3)no2)c(Cl)c1`, -9.96%.
Take `Cc1ccc2cc(CCNC(=O)c3ccc(Br)o3)c(=O)[nH]c2c1`: the “hERG current change (%, negative = inhibition) at 10uM” value is recorded as -24.3%.
The same measure for `c1ccc(Cn2nnc3c(N4CCCC4)ncnc32)cc1`: -6.32%; for `Cc1ccc(C(=O)NCCNc2ncc(C(F)(F)F)cc2Cl)cc1[N+](=O)[O-]`: -32.2%; for `CCc1ccc(-n2c(=O)c3c(C)c(C(=O)N(C)C)sc3n(CC(=O)NCC3CCCO3)c2=O)cc1` (stereo not drawn): -0.681%.
Take `Cl.O=C(O)c1ccc(Nc2ncnc3ccccc23)cc1`: the “hERG current change (%, negative = inhibition) at 10uM” value amounted to 22.8%.
Regarding `Cc1ccc(C)c(OCC(=O)NC(Cc2c[nH]c3ccccc23)C(=O)O)c1` (stereo not drawn), the “hERG current change (%, negative = inhibition) at 10uM” value was 22.7%.
As for `CCOc1ccc(NC(=S)NCCCN2CCN(C3CCCCC3)CC2)cc1`, the “hERG current change (%, negative = inhibition) at 10uM” value was -47.2%.
The same measure for `N#C/C(=C/c1cn(CC(=O)O)c2ccccc12)c1ccc(F)cc1`: -4.63%.
For the molecule `CC(=C/C(=O)O)/C(=C\c1ccc(Br)o1)C(=O)O`, the “hERG current change (%, negative = inhibition) at 10uM” value was determined as 2.44%.
The same measure for `Cc1ccc(C(c2nnnn2CS(=O)(=O)c2ccc(C)cc2)N2CCC(C(N)=O)CC2)cc1` (stereo not drawn): -55.1%; for `COc1ccc(-n2nc(C(=O)NCC(=O)N3CCCCCC3)c3ccccc3c2=O)cc1`: 6.24%.
Regarding `COc1cc(C(C(=O)NCc2ccccc2)N(Cc2ccco2)C(=O)c2cnccn2)cc(OC)c1OC` (stereo not drawn), the “hERG current change (%, negative = inhibition) at 10uM” value was 19.8%.
The same measure for `Nc1nnnn1/N=C/c1cccc(O)c1`: 21.2%; for `Cn1c(/C(C#N)=N/O)nc2ccccc21`: 8.27%; for `O=C(O)C(=O)O.O=[N+]([O-])c1ccc(Oc2ccc(C(F)(F)F)cn2)cc1`: -53.9%.
The same measure for `O=c1c(C(c2ccc(Br)cc2)c2c(O)nc3n(c2=O)CCS3)c(O)nc2n1CCS2`: 14.9%; for `CCCCC(=O)N/N=C/c1c(O)n(Cc2ccc(F)cc2)c(=O)[nH]c1=O`: 4.73%.
Take `O=C(NCCOc1nc(N2CCOCC2)nc(N2CCOCC2)n1)Nc1ccc(Cl)cc1`: the “hERG current change (%, negative = inhibition) at 10uM” value was 5.21%.
Take `Cc1cc(Cl)c(S(=O)(=O)Nc2ccc3c(c2)OCO3)cc1OCC(=O)NC1CCCCC1`: the “hERG current change (%, negative = inhibition) at 10uM” value is reported as 13%.
For the molecule `c1ccc(CCN2CCN=C2Nc2ccccc2)cc1`, the “hERG current change (%, negative = inhibition) at 10uM” value is recorded as -7.18%.
For the molecule `Cc1nn(CC2CC2)c(=O)n1-c1ccc(Oc2ccccc2)cc1`, the “hERG current change (%, negative = inhibition) at 10uM” value is reported as -13.6%.
In the case of `COc1ccc(CC2(CO)CCN(Cc3ccncc3)CC2)cc1` it was -21.2%; in that of `O=C1NCCC/C1=N\Nc1ccc(Br)cc1`, 10.7%; in that of `COC(=O)Nc1cc([N+](=O)[O-])ccc1OC`, 28.4%.
For `CCOc1ccccc1C(=O)NCCNC(=O)c1ccccc1OCC`, the “hERG current change (%, negative = inhibition) at 10uM” value is listed as -2.01%.
In the case of `Cc1cc(C)n2c(SCC(=O)Nc3c(C)n(C)n(-c4ccccc4)c3=O)nnc2n1` it was -26.3%.
Consider `COc1ccc(Cc2[nH]n3c(=O)cc(C)nc3c2-c2ccccc2)cc1`, for which the “hERG current change (%, negative = inhibition) at 10uM” value is 11.1%.
As for `COc1ccc(N2C(C)=CS/C2=C(/C#N)c2nnc(N3CCOCC3)n2-c2ccccc2)cc1`, the “hERG current change (%, negative = inhibition) at 10uM” value is reported as -18.3%.
In the case of `Cc1c(C(=O)N2CC3(CC(c4cccc(NC(=O)[C@H]5CCC(=O)N5)c4)=NO3)C[C@@H]2C(N)=O)cc([N+](=O)[O-])cc1[N+](=O)[O-]` (stereo partly drawn) it was 10.5%.
In the case of `CCC(CC)CN1C(Nc2ccccc2)=NC[C@@H]1CC(C)C`, the “hERG current change (%, negative = inhibition) at 10uM” value is reported as -58.2%.
The same measure for `CCCCNc1ccc(C(CC(N)=O)NC(=O)Cc2ccc(Br)cc2)cc1[N+](=O)[O-]` (stereo not drawn): -0.243%; for `Cc1ccc(-c2cc(C(=O)Nc3ccccn3)c3ccccc3n2)o1`: 6.72%.
The same measure for `CC(=O)OCCOc1nc(N(C)C)nc(N(C)C)n1`: 3.1%; for `O=C(Nc1ccccc1N1CCN(C(=O)c2ccc(Cl)cc2)CC1)c1cc(Br)ccc1Cl`: -67.7%.
In the case of `O=c1cc(N2CCN(c3ccccc3)CC2)[nH]c(=O)n1-c1ccccc1Cl` it was -1.13%; in that of `COc1cc(C(c2sc3nc(C)nn3c2O)N2CCc3ccccc3C2)cc(OC)c1OC` (stereo not drawn), -11.5%; in that of `COCCCNC(=O)c1c(N)n(/N=C/c2cccs2)c2nc3ccccc3nc12`, 2.94%.
As to `O=C(Cc1ccc(Cl)cc1)NNS(=O)(=O)c1ccc([N+](=O)[O-])cc1`, the “hERG current change (%, negative = inhibition) at 10uM” value is given as 7.22%.
Regarding `CCOc1ccc(OCC)c(S(=O)(=O)N2CCCCC2C)c1` (stereo not drawn), the “hERG current change (%, negative = inhibition) at 10uM” value was -52.2%.
With `CCOC(=O)CC(N)c1ccc(OC)cc1.Cl` (stereo not drawn), the “hERG current change (%, negative = inhibition) at 10uM” value is given as 7.93%.
Consider `COc1ccc(OC)c(S(=O)(=O)N2CCCC(C(=O)N3CCCC3)C2)c1` (stereo not drawn), for which the “hERG current change (%, negative = inhibition) at 10uM” value is -0.894%.
The same measure for `Cc1ccc(N(CC(=O)NC2CC3CCC2C3)S(C)(=O)=O)cc1C` (stereo not drawn): -6.97%.
